Experimental data published in the supplement of paper PMC11417369.
± gives the standard deviation of the averaged measurements. The list shows a part of the results.

tested on: PfAP2-G AP2 domain (GST-tagged); test: gcPBM binding intensity (ln(normalized median fluorescence intensity)); higher = stronger DNA binding
In short: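 The highest Masliner-normalised natural-log median intensity across replicate spots of either probe orientation is reported as binding intensity. GST-tagged P. falciparum DNA-binding domains expressed in E. coli were applied for 1 h to an Agilent 4 × 180k array of primer-extended double-stranded 36-bp intergenic genomic probes plus negative controls, and bound protein was detected with Alexa488 anti-GST antibody and scanned at 488 nm.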

Sequence | gcPBM binding intensity (ln)
AAAAAATTCCTATATACACACACGCACATATTTATA [CACACA_site6192] | 10.2 ± 0.15
ATATAATAAATATATTGTACATATGAATCTACTAAA [XGTACX_site7610] | 10.8 ± 0.52
TAAAAAATGATAGAAGTGCATAAAATAATATATATA [GTGCAC_site9904] | 10.03 ± 0.078
TATAATTTTTTTAATACACACAAATATTTATATATA [CACACA_site3042] | 9.94 ± 0.2
AATTAATGTTTTGTCACACAGTATGATTATATATAT [CACACA_site6143] | 10.1 ± 0.12
TATATATACATATACGCATGTAAATTCAAAAGTAAA [TGCATGCA_site956] | 9.96 ± 0.19
AAGAGAAATGGGCACACACACACATATTATATATAT [CACACA_site1531] | 10.7 ± 0.45
AAAAAGAATATAAGTAGTACAGTGCATATAATAATT [XGTACX_site617] | 11.6 ± 0.96
TTTTACTCTTAAAATAATAAAAAATATTCACATTTA [CACACA_negctrl_site1508] | 9.63 ± 0.085
TTAAATAATTTTTAATGTACATTAAATTTATTATTA [XGTACX_site261] | 11.2 ± 0.95
TACACATTATGTATCATACACACAAATAAATATATA [CACACA_site608] | 10.1 ± 0.2
TTAGTATATTTTTCCTGTACGTACTCAGATACAAAT [XGTACX_site7397] | 11.7 ± 0.91
AATAATAACAAATGAACACACATATATATGAGCAAA [CACACA_site2121] | 9.89 ± 0.057
TTGATATAAAAAGAAAGTACTTTATAGATGTTTATT [XGTACX_site8144] | 11.1 ± 0.57
TATAAAAATATATATATATATATATATATATATATA [TGCATGCA_negctrl_site541] | 9.82 ± 0.73
GCATCATTTATTTGCACACCTATTATATACTTTTTA [CACACA_site2098] | 10.09 ± 0.064
TACATAAACTTTATAACACACACTTATATATATATA [CACACA_site1106] | 10 ± 0.2
TATATAAAGATATATACACACAAAAAAAAAAAAAAA [CACACA_site6778] | 9.7 ± 0.41
TTCTCCATCAGATACTGTACATAATATATATAATAT [XGTACX_site8827] | 11 ± 0.76
TGTATAACCTGTGTTACACACATTAGAATTTATATA [CACACA_site6393] | 9.905 ± 0.092
AATGTATTATGTAATAGTACGTATAATATCTTATTT [XGTACX_site3] | 11.1 ± 0.68
ATACATATCTATAATACACACATAAATGTAACATTT [CACACA_site7621] | 10.095 ± 0.007

Sequence | gcPBM binding intensity (ln)
TTCTACGTTTTAAAAAAAAAAAAAAAAAAAAAAAAA [XGTACX_negctrl_site6] | 9.64 ± 0.33
CATAAAAATGAACATACACACATATATTTATTTATA [CACACA_site7222] | 9.785 ± 0.021
TGAAGATAAAAATATGCACACATATATATATATATA [CACACA_site8027] | 10.1 ± 0.42
ATAGAAATCTATTGTGATTATTATTTTATTTTTAGT [XGTACX_negctrl_site605] | 9.715 ± 0.049
ACATATTATAGGAATACACACAAAAACTTATCGGTA [CACACA_site7587] | 10.2 ± 0.078
ATTATATATATTGGAGTGCATATATAGTATTTTATA | 10.1 ± 0.17
ATTATATCACTGTGTTGTACTTCTTATATAAAAATA [XGTACX_site2333] | 11.4 ± 1
ACATATCGGGTGCATTAACACACATTTATTTGAATA [CACACA_site8736] | 10.3 ± 0.33
TCCGTATAATTTTGCACACGAATATAAATTTGATAA [CACACA_site136] | 10.1 ± 0.25
TATATATTCATGTGTACACACAAAAAAAAATAAAGT [CACACA_site2207] | 11.7 ± 0.9
ATAAGCGAATATATATCACACACAAAAAAATCAGAC [CACACA_site8657] | 10.2 ± 0.17
TTTTTTTTTGATATTTGTACTTAAGTAAATATTATA [XGTACX_site3843] | 11 ± 0.59
ATAAAAATAAAATGGACACACATATATACATATTTG [CACACA_site3277] | 10.8 ± 0.58
AATTATAATAAATAACGTACAAAAAATAAATTATTT [XGTACX_site3627] | 11 ± 0.4
AAAAAGGAAATTTACACACACATATAACATACATTA [CACACA_site7534] | 9.84 ± 0.19
ATATTACACAGATATGCACACATTGTAGTTATTTAT [CACACA_site5454] | 10.04 ± 0.064
TCATATTTACAAAAAGGTATTAATAAATAAAATATT [CACACA_negctrl_site259] | 9.795 ± 0.021
AATAAGTGTTGATTCTTAAAATGACCATATAATAAT [TGCATGCA_negctrl_site221] | 10.8 ± 0.56
GCTATCATATCATGTTGTACACAACCTCAAAATGAA [XGTACX_site8757] | 11.4 ± 0.96
TATCTTTTATAAGTGACACACATAAATATTTAAATT [CACACA_site833] | 10.3 ± 0.33
ATATTAGGGTCATGAACACACAAAAAAAAAAAAAAA [CACACA_site937] | 10.4 ± 0.54
AATCGATAACAATGTAGTACCAGAAAAATAAATATT [XGTACX_site8501] | 11.3 ± 0.69
